Data reported in the RNAGym collection of RNA variant scans (doi:10.7554/elife.90254).
Read counts are not given, so values of variants with three or more changes are uncertain.

B1: LINE1-mini (parent)
chain: GGCAGAGCUCAACACAGCGUGGCAAAGUGGCUGUGGCUAGACUGCC

Variants of: B1
Test: self-cleavage, relative activity (ratio to wild type); higher = more cleavage; in vitro, sequencing; the parent is a self-cleaving ribozyme
A24G G36C C45G gave a self-cleavage of 0. In the case of C8U A24C U28G C31A, the self-cleavage is reported as 0.11. In the case of G1C A24U U34G U38G, the self-cleavage is reported as 0.02. Variant G1C G2U C10U G29A A39C U43C has a self-cleavage of 0. U9C C13A G17C G33U showed a self-cleavage of 0. A11U A14U U32A showed a self-cleavage of 0. U9A C13A A25U G44C gave a self-cleavage of 0.05. Work on G5C A16C G35C yielded a self-cleavage of 0.02. With C3A G17C G40U G44A the self-cleavage was 0.08. For G2A G17C G19C, the self-cleavage was 0.24. Variant C3A C8G C45U has a self-cleavage of 0.21. Work on G5U A24C U34A G36U yielded a self-cleavage of 0.12. In the case of G27C G29U C37G, the self-cleavage is reported as 0.02. For G2U C13A C23U G35C G40A C42U, the self-cleavage was 0.04. In the case of C15G G22C A26G, the self-cleavage is reported as 0.01. Variant G19U G40A U43G has a self-cleavage of 0.09. G7U C10U C18A G33U showed a self-cleavage of 0.03. Variant C3U U34C C46G has a self-cleavage of 0.06. Work on G1A A6G G33C yielded a self-cleavage of 0.01. C23U G29U C42A gave a self-cleavage of 0.1. A24U G35A A41U showed a self-cleavage of 0.08. In the case of U28A C31U A41U, the self-cleavage is reported as 0.18. Variant G7A U34G U43G has a self-cleavage of 0.01. In the case of G1U C18U U20A, the self-cleavage is reported as 0.29. In the case of G5A C18U G36A C37G, the self-cleavage is reported as 0.15. Work on C23A U34G U43G yielded a self-cleavage of 0. With G1C C8G G19U G27U A41U the self-cleavage was 0.03. For G5U U9A G27U G36C, the self-cleavage was 0.02. C10G G21U G30C G35U showed a self-cleavage of 0.01. C10U G21U A25G C37U C42G showed a self-cleavage of 0. G7A C8A A14U A41G showed a self-cleavage of 0.24. Variant A6G C8U G17A U32A has a self-cleavage of 0.04. For A4C C18U U38A, the self-cleavage was 0.42. Work on C13A C23A A25U A26C yielded a self-cleavage of 0.09. With C3U G19C G44A the self-cleavage was 0.28. C13U G19U A25U C37U showed a self-cleavage of 0.13. Work on U20A C23G U34C yielded a self-cleavage of 0.21. Work on C10G A14C A39U yielded a self-cleavage of 0.02. For U9G G19A G36C, the self-cleavage was 0.04. Variant C8U A14U U43G has a self-cleavage of 0.06. C3A A4G C8A A16U C18A C23G gave a self-cleavage of 1.16. G7C A14G C37A A39C C46A gave a self-cleavage of 0.29. Variant G7C C13A A24C U28C has a self-cleavage of 0.02. A14U G17U C45G gave a self-cleavage of 0.04. In the case of C3A C10A A12U G22A G33C U34C G40C, the self-cleavage is reported as 0.02. G2U C8U G21U G40C gave a self-cleavage of 0.11. C8U C18A A26G gave a self-cleavage of 0.18. For C8G C10U A11C C18A C23U G36U, the self-cleavage was 0.04. Work on G5C A25U C37A yielded a self-cleavage of 0.11. Variant G2U A11G C45G has a self-cleavage of 0.02. With C15U C18A G44A the self-cleavage was 0. Variant C10G C18U G29U has a self-cleavage of 0.04. In the case of A6G C23A C37U, the self-cleavage is reported as 0.01. With G7C U38C G40A A41G the self-cleavage was 0.29. Variant A12G C18U G19C has a self-cleavage of 0. Work on G2C C3G C10A A12G G33A yielded a self-cleavage of 0.03. In the case of A4C G17C G21C, the self-cleavage is reported as 0.08. In the case of G17C G40U C42A, the self-cleavage is reported as 0.05. Work on A6G C8U C10A C15G C23A yielded a self-cleavage of 0.01. Work on G7U C8A G29C A41G yielded a self-cleavage of 0.21. For G2U C10A A12C A14C, the self-cleavage was 0. With C23G A24G C31A the self-cleavage was 0.03. Work on A6G U32A C46U yielded a self-cleavage of 0.05. In the case of G7A A14G G35A, the self-cleavage is reported as 0.45. In the case of G1C G27U G29C C31G, the self-cleavage is reported as 0.04. In the case of A14U A26C A39G, the self-cleavage is reported as 0.05. With A14G G21A G29U the self-cleavage was 0.25. In the case of A11G U28G C37U, the self-cleavage is reported as 0.07. With C8G G27A G29U U32G G33A G36U C42A the self-cleavage was 0.16. Work on C10G A14U U32C yielded a self-cleavage of 0.02. Work on G2U G21A C23A G29C yielded a self-cleavage of 0.1. Variant G1U C3A C8G G22A G36U has a self-cleavage of 0.13. For G5U A16G C23U G35U, the self-cleavage was 0.06. In the case of A4G C15U G19U G33C C45U, the self-cleavage is reported as 0.02. In the case of G5A G19U G22U G29U G40C A41C, the self-cleavage is reported as 0.04. Work on C18U U28C G29A G30A G35C C45G yielded a self-cleavage of 0.06. C3G G5C U34A A39U A41G gave a self-cleavage of 0.03. G1U A24C C37A gave a self-cleavage of 0.15. In the case of C10A A11G C13A G17U A25U, the self-cleavage is reported as 0.02. Variant G2U A4G C10G G35U has a self-cleavage of 0.03. Variant U9G A14U C23A C42U has a self-cleavage of 0. A6C G29U A39C G40A gave a self-cleavage of 0.18. C18A G36C C42A gave a self-cleavage of 0. With C18U A24U G36C C37U the self-cleavage was 0.03. C13A G33C U38G C45U gave a self-cleavage of 0.01. Variant C3A C18U C37G has a self-cleavage of 0.08. For G7U G30U G36U, the self-cleavage was 0.02. In the case of C10A C31A C42A, the self-cleavage is reported as 0.02. With C8U U9G G19A the self-cleavage was 0.32. Variant U9G C10A C15A G19A has a self-cleavage of 0.03. In the case of C31A C37A U38C G44U, the self-cleavage is reported as 0.05. For C18G G19C U20C G30A, the self-cleavage was 0.09. In the case of C3G C8A C45U, the self-cleavage is reported as 0.34. Work on A4G A14C U34C yielded a self-cleavage of 0.07. With A4C C15A C46U the self-cleavage was 0.08. For A6C C13U C42G, the self-cleavage was 0.03. Variant C10G G21U G40U C42A C46G has a self-cleavage of 0.01. C3U A14C C15A G33A C37A showed a self-cleavage of 0.04. Work on A12U C13A G30A A39U yielded a self-cleavage of 0.09. For A6U G27U G40U C42A, the self-cleavage was 0.03. For G5A C13U A26G U38C, the self-cleavage was 0.07. For A6U A24C U43C, the self-cleavage was 0.07. In the case of G2A C10G C31U U32C, the self-cleavage is reported as 0.04. With A6G C15U A26G G29A U32A U38A A39C the self-cleavage was 0.13. In the case of A6U G19U G27C C42U C46A, the self-cleavage is reported as 0.28. G1U A4G C46U gave a self-cleavage of 0.04. Variant A24U G29C C31A has a self-cleavage of 0.68. Variant G2A A11U G36A has a self-cleavage of 0.1. In the case of G2C C13A A16U A25G C31A C46G, the self-cleavage is reported as 0.13. In the case of C8A C13U C15A G30A, the self-cleavage is reported as 0.33. For C3U A14G G17C G19U U28G C46U, the self-cleavage was 0.09. Variant G1C C18A G27A U28C G36U has a self-cleavage of 0.02. For A11U A14C C15G G29U G30U C31A G36C, the self-cleavage was 0.01. Variant G5C C13A A14C G36C has a self-cleavage of 0.03. For A14U U28A G36C U38C, the self-cleavage was 0.01. G1U C23A A26C G35U A39U gave a self-cleavage of 0.03. G1U C13A C15U G17U C37A showed a self-cleavage of 0.07. Variant A12U A16U A26G G27A G33A has a self-cleavage of 0.03. A24G G36U G40A gave a self-cleavage of 0.05. For C10U A26U A41G, the self-cleavage was 0.02. Work on C18U U20A U32G yielded a self-cleavage of 0.04. For A14G C18G C23G A24C C31G, the self-cleavage was 0.02. With U9C C37U A41C the self-cleavage was 0.03. Variant C18U G35U A41U has a self-cleavage of 0.09. With G5U U9C C13U C15U the self-cleavage was 0.02. Variant G2C A12G C15G has a self-cleavage of 0.2. For G19U U20A C31G, the self-cleavage was 0.56. G7A C18G G19A gave a self-cleavage of 0.65. Work on G29U C37A G40C C46G yielded a self-cleavage of 0.05. In the case of G2C G29U U32C, the self-cleavage is reported as 0.27. Variant G2C C3G G5A G40U has a self-cleavage of 0.11. G1U C23A A24U showed a self-cleavage of 0.2. For C31U U32C G36U, the self-cleavage was 0.16. G17A A26U G27U U28G A39C showed a self-cleavage of 0.01. In the case of A6C C13U C18U G19A, the self-cleavage is reported as 0.06. C8A U9A G22U A25C gave a self-cleavage of 0.5. In the case of A11C A12G C13G, the self-cleavage is reported as 0. Variant C3A C18A G40U has a self-cleavage of 0.05. For U9G G27U G36A, the self-cleavage was 0.1. A12C C13U C23U showed a self-cleavage of 0.02. Variant G1U G5U C13A has a self-cleavage of 0.08. G1A G17A G22C C45U gave a self-cleavage of 0.77. Variant C3A A6G G19U U34A has a self-cleavage of 0.15. G21A G22A C31G gave a self-cleavage of 0.07. In the case of G1U A24G G29C U32C, the self-cleavage is reported as 0.08. For A6C C10A C18G G36U C46U, the self-cleavage was 0.03. Work on G7A G30C C46U yielded a self-cleavage of 0.11. With C3G A11C C13A C37U the self-cleavage was 0.02. Work on G5A G29A G30A yielded a self-cleavage of 0.1. Variant C3U A4G G21U U28A U32A U38C has a self-cleavage of 0.05. Variant A4C U20A G21U A39U C42U C45A has a self-cleavage of 0.05. In the case of G30U C37U C46A, the self-cleavage is reported as 0.05. Work on G7C A11C U34A yielded a self-cleavage of 0.01. Work on G19U G21A U34A yielded a self-cleavage of 0.1. With U9C G17A C31G U32C C42G U43C the self-cleavage was 0.02. Work on C3A A4C A16U A24C G30C G36U yielded a self-cleavage of 0.17. With A16C A26U G35A the self-cleavage was 0.01. With C18U G30C G36U G40U G44C the self-cleavage was 0.07. G2C A11G A26G G33C C37U U38C gave a self-cleavage of 0. G5A A14C G29A C31U G36C gave a self-cleavage of 0.07. Variant G35A U38A C46G has a self-cleavage of 0.12. In the case of C10A A24C G33U, the self-cleavage is reported as 0.37. G17U G33A U43A gave a self-cleavage of 0.02. With C8U C18A U20C A25C the self-cleavage was 0.87. For C8U C13A A16G G22C C23A G40C C46G, the self-cleavage was 0. For C10U A12G G22C, the self-cleavage was 0.01. G5C U43G C46A gave a self-cleavage of 0.02.
